Experimental data taken from the supplement of paper PMC3334620.
The full ranking holds about 33,000 sequences; the median of “E-score (-0.5 to 0.5)” is about -0.035, and the highest 2% start at about 0.34. This is one part of the list.

What follows are sequences tested against T1, Mot3 (UniProt P54785) (assay: PBM E-score (8-mer binding enrichment) (E-score (-0.5 to 0.5)); higher = stronger / more preferred TF binding; most listed sequences are background and not binding sites). Conditions: protein concentration: 200 nM; construct: GST-full length.
T1 sequence: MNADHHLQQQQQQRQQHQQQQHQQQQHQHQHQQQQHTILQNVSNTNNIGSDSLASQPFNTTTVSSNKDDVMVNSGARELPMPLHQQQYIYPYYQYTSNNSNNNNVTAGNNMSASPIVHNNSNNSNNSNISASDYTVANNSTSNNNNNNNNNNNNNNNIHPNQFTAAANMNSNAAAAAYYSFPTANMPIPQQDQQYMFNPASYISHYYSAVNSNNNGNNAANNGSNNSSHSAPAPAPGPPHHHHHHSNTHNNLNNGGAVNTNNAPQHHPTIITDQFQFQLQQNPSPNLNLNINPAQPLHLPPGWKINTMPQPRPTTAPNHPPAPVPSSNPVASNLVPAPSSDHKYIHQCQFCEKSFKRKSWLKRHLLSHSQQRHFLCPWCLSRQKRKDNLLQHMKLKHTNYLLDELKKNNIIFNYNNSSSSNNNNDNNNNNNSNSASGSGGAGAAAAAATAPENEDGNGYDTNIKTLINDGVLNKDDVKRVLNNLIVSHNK
Summary of the method: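 GST-tagged yeast TFs (full-length or DNA-binding domain) were made by PURExpress in vitro transcription/translation and applied at about 100-200 nM to universal all-10-mer Agilent arrays. The arrays were made double-stranded by primer extension, on fresh or once-stripped slides. Bound protein was detected with fluorescent anti-GST, and scans were normalised with masliner. Each ungapped eight-base word, pooled with its reverse complement, received an E-score (modified Wilcoxon-Mann-Whitney statistic) from the Universal PBM Analysis Suite.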

Sequence	PBM E-score
ATGAAAAA	0.0509
AAGGACGC	-0.0574
CCGGACCC	-0.0667
CAGTTAAG	-0.0297
ACGGCTAC	-0.165
GAAGCCAA	-0.3
CACCGCTG	-0.138
AGAACTAC	0.0299
ATGGATCG	-0.0306
GCTGCTCA	-0.148
CACAAGAG	-0.0143
GAATGCAC	0.0446
ACCCGCTC	-0.29
ATTAATGC	-0.0961
CGCAAAGA	-0.00228
GGCACTCA	0.15
ATAGGGAA	0.00264
CTCACTCA	0.00285
TGCGCGCA	0.229
ATCCTTCC	-0.0671
CGACAAGA	0.052
ATGGCTCG	-0.182
CAGCATGC	-0.0613
CCCGCCTC	-0.121
CCCGGAAG	-0.0782

Sequence	PBM E-score
AATGGCAA	-0.0233
AGACGCTA	-0.174
ACCACCGC	-0.171
CAATTACA	0.378
CATAGAGA	0.0452
CCGGACAG	-0.0786
CCTAGCAC	0.0273
AATGACAC	0.25
ATATTAGC	-0.0465
ATAGCGGC	-0.187
AGGTCACG	-0.0889
GGTAGGAC	-0.172
CCATCTAC	-0.151
CCAGATGG	-0.23
TAAGATTA	0.113
CTCGACGC	0.0942
CGGAAATC	-0.109
CTGTACAC	0.265
ACGTTCAC	0.0135
ACTATAGC	-0.1
ATTACCCC	-0.0122
CCGCGACA	-0.104
GCAATCAA	0.0823
CTAAATAA	0.195
GGTGAGGA	-0.148

Sequence	PBM E-score
TACAATGA	0.136
AAGCACGT	0.109
CGGTCATA	-0.283
ATTTGGAC	0.0265
GCTACTAC	0.0121
TAGCAAGA	0.152
CAGAAGAA	-0.189
AACTCGTG	0.143
AAACTGTT	0.0843
AACATTCT	0.214
CTGGACAC	-0.046
GTCCTGAA	-0.211
AATCCAGA	-0.119
ATGCGGCG	-0.109
CTATTCCA	0.0473
AGCAACTG	-0.164
TCGGACGA	0.0576
ACTAAAAT	-0.0105
GCGGGGTA	-0.194
AGGATCAT	0.0704
AATCGCCC	-0.408
AGCCCGGG	-0.0855
CTTGACGA	-0.0394
GATACCAA	-0.0601
ACGTGGTA	0.106

Sequence	PBM E-score
CAAAAAAG	0.151
AAAGTATG	0.136
CATCGCGC	-0.206
CTCGCAAC	-0.0416
GCCTACGC	0.293
AATAATAG	0.0211
CAGTATAA	0.00928
AAACAGTC	-0.076
GCCTAGAC	0.0287
GATACTCC	-0.218
AGCGAATC	-0.118
ACATTGCC	0.236
CGGGAGAG	-0.288
CGAGTCGA	-0.108
TCGTTTCA	-0.124
CTTGCTAC	0.155
ACTGGATA	-0.0369
ATGTAGGG	0.00541
AACCCCGT	-0.258
ACACTTAA	0.193
TCTGCTAA	0.0266
CCCACGCA	-0.0521
ATTAATCC	-0.14
AGTTAATG	0.0724
ACGTGGTC	0.0227

Sequence	PBM E-score
ACTGATAA	-0.0129
CTGGGCAC	0.0731
CATACTAA	0.0644
CTATTCTC	-0.0386
ACTCCTCT	-0.182
TAGAGATA	0.036
CCGACGTC	-0.235
GACAGCAC	-0.0325
GACAGAAA	0.0469
AGCGGGTC	-0.196
CCATGGAG	-0.244
CAAAGAAG	0.135
AAGAGAAC	0.0546
ATATGGGA	-0.14
CCTAGCCA	-0.0256
AACTCGCA	0.00841
GCACATTA	0.214
AGGAGGGG	-0.156
AAATTGAA	0.112
CTCACGAA	0.048
ATCTGTCC	-0.268
CGGCTTAC	0.0799
AAGGAAAT	0.426
CGAGAGTC	-0.378
AGTTGTAC	-0.0112

Sequence	PBM E-score
AAGAACAG	0.218
CGCAGCAG	0.0067
GTGCCGAA	-0.0995
AGGCAGGA	0.152
AGTGTGTC	0.0504
GGGCTATA	-0.197
CGCAAGGA	-0.0211
ACACCCGT	0.053
GTCCGAAA	-0.142
AAGGTGGT	-0.0322
ACGACAAT	0.184
ACCACTAA	0.162
CCAGTCAG	-0.242
GCATGATA	0.0933
ATTAGAGA	-0.174
CGAACAAG	0.0494
GCAGACGA	-0.212
CCGTTAGA	-0.0412
CAACGTAG	0.0756
ATACGACG	-0.00564
TGTGCACA	-0.00884
GCTGCGAC	-0.195
GCAAGTTA	0.133
CCCGTTGC	0.0207
CGCTCTTA	-0.0667

Sequence	PBM E-score
CTGACCCA	-0.213
GCGGCACC	-0.159
CATAGTGC	0.117
GGTTTGAA	0.0629
CGCGGAGC	-0.236
ATATTCCG	-0.134
AAGTTAGC	-0.112
CTTAAGGA	0.0409
ATGCTCTC	-0.141
ACGTGGCG	0.0823
GTTCGAAC	-0.0852
ATCGAAAG	-0.0284
GGTGCACA	-0.0839
AAACATTT	0.228
AAGACAGA	0.149
AGGTGCGG	-0.121
TATATAGA	0.133
CAACAGGA	0.172
AATAACAG	0.254
AGGAACCC	0.444
ACCGCACT	-0.179
CCTATTTA	0.21
